The list shows a part of the results. Cleavage of a single-stranded DNA pool by Rep nickase domains was read by sequencing for 1 h at 37 °C with 3 µM enzyme; only the middle of the 90-letter strands is printed. A value is the log2 ratio of uncut reads to the pool without enzyme; strong cutting gives strongly negative numbers. There is no active / inactive call. Reads are scaled to the total; uncut strands gain when others are lost, and binding without cutting may add a little.
Assays:
Experiment in all cases: uncleaved DNA left, log2 of reads against the no-enzyme library (log2 ratio); higher = less cleavage (more negative = more Rep cleavage of the k-mer); sequences stand for … in CTCGTCCG…ACCGGAGA
[1] = test system: T1, Rep nickase domain of Muscovy duck circovirus
T1 sequence (protein, residues 1-111, tag omitted): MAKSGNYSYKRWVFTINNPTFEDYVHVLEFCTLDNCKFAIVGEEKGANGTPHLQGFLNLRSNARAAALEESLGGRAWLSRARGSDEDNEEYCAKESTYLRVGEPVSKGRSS
Method: (§1)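 A pool of 90-nt single-stranded DNAs with seven random bases just before the constant AC of the nick site (name = the seven bases) was cut by 3 µM recombinant His6-SUMO-tagged Rep nickase domain (300 nM DNA, 50 mM HEPES pH 8.0, 50 mM NaCl, 1 mM MnCl2, 1 h, 37 °C, three replicates). Uncut DNA was amplified and sequenced.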

[2] = test system: T2, Rep nickase domain of banana bunchy top virus
T2 sequence (protein, residues 1-94, tag omitted): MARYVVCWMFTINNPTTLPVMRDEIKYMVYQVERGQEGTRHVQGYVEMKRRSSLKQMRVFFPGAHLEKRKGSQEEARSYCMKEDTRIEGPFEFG
Method: as §1

[3] = test system: T3, Rep nickase domain of cabbage leaf curl virus
T3 sequence (protein, residues 1-116, tag omitted): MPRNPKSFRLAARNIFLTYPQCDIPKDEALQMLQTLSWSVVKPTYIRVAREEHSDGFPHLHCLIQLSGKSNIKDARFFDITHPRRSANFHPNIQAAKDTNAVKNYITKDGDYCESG
Method: as §1

[4] = test system: T4, Rep nickase domain of chickpea chlorotic dwarf virus
T4 sequence (protein, residues 1-124, tag omitted): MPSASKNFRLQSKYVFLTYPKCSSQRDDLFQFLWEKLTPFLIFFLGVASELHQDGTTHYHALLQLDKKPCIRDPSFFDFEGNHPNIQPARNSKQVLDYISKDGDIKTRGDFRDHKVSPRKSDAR
Method: as §1

[5] = test system: T5, Rep nickase domain of faba bean necrotic yellows virus
T5 sequence (protein, residues 1-98, tag omitted): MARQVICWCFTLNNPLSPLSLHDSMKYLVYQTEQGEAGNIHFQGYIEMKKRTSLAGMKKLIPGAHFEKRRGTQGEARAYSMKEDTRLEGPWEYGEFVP
Method: as §1

[6] = test system: T6, Rep nickase domain of maize striate mosaic virus
T6 sequence (protein, residues 1-117, tag omitted): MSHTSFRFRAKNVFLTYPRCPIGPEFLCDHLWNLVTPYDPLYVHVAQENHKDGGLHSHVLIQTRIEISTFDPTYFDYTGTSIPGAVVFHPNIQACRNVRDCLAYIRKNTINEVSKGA
Method: as §1

[7] = test system: T7, Rep nickase domain of porcine circovirus 2
T7 sequence (protein, residues 2-116, tag omitted): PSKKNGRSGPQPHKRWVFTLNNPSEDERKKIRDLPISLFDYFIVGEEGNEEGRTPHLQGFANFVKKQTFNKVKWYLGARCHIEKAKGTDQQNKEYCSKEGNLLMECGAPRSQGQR
Method: as §1

[8] = test system: T8, Rep nickase domain of tomato yellow leaf curl virus
T8 sequence (protein, residues 1-136, tag omitted): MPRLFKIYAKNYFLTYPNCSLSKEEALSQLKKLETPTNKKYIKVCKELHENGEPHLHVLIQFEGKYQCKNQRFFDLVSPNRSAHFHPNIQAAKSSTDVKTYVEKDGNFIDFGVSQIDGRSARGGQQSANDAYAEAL
Method: as §1

[9] = test system: T9, Rep nickase domain of wheat dwarf virus
T9 sequence (protein, residues 1-137, tag omitted): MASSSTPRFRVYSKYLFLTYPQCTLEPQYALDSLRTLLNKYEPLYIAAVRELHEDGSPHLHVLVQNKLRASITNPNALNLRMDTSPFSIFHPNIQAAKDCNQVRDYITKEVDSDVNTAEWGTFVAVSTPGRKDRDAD
Method: as §1

| Sequence | uncleaved DNA left (log2) [1] | uncleaved DNA left (log2) [2] | uncleaved DNA left (log2) [3] | uncleaved DNA left (log2) [4] | uncleaved DNA left (log2) [5] | uncleaved DNA left (log2) [6] | uncleaved DNA left (log2) [7] | uncleaved DNA left (log2) [8] | uncleaved DNA left (log2) [9] |
| --- | --- | --- | --- | --- | --- | --- | --- | --- | --- |
| GGTAACA | -0.084 | 0.116 | 0.646 | 1.32 | -0.0246 | 2.01 | 0.24 | 0.139 | 0.203 |
| GGCCTCT | -0.0735 | -0.064 | 0.267 | 0.386 | -0.0151 | 1.14 | -0.0944 | -0.081 | 0.007 |
| GAACGTT | 0.124 | -0.0676 | 0.44 | -0.583 | -0.0777 | 1.72 | -0.0808 | -0.0175 | 0.0501 |
| CCACGGT | 0.0378 | -0.0755 | 0.122 | -0.134 | 0.0308 | 0.641 | -0.0289 | -0.154 | -0.0521 |
| AGCATGT | -0.0593 | 0.0623 | 0.0517 | 0.405 | -0.065 | 0.925 | -0.0677 | -0.039 | 0.0142 |
| AGAGTCC | 0.16 | 0.0756 | 0.421 | 0.652 | 0.104 | 0.552 | -0.183 | 0.105 | 0.133 |
| TCGCATA | -0.0671 | -0.0635 | -0.0419 | -0.847 | -0.0637 | -0.575 | -0.251 | -0.0878 | -0.148 |
| GGAGCTG | 0.0335 | 0.0554 | 0.284 | 1.34 | 0.0266 | 1.69 | 0.154 | -0.114 | 0.0968 |
| CCCACAG | 0.0118 | -0.0296 | -0.685 | -0.784 | -0.00358 | -0.964 | 0.135 | -0.0495 | -0.0371 |
| ATACGAC | -0.0387 | -0.0484 | -0.14 | -0.328 | -0.0355 | -0.745 | 0.0124 | -0.0307 | 0.00875 |
| AGTTCAG | 0.0801 | 0.114 | -0.56 | -0.405 | 0.0892 | -1.01 | 0.195 | 0.121 | -0.000997 |
| TTTCGAC | 0.0476 | -0.0584 | 0.0677 | -0.186 | 0.0964 | -0.511 | 0.122 | 0.0481 | -0.124 |
| ACGTGCT | -0.369 | -0.0678 | -0.595 | -0.987 | 0.013 | -0.981 | -2.98 | 0.0916 | -0.12 |
| CATTTTC | -0.76 | -0.663 | -0.116 | -0.544 | 0.0739 | -1.03 | -0.61 | -0.00436 | -0.0207 |
| TAACAGA | 0.0913 | -0.0423 | -0.448 | -2.31 | 0.0471 | -0.874 | 0.00199 | 0.0448 | 0.0133 |
| ATATTTA | -0.0948 | -0.0406 | -0.117 | -1.84 | -0.107 | -0.691 | -0.426 | -0.0324 | -0.0484 |
| GGATCCC | 0.102 | 0.154 | 0.482 | 1.2 | 0.148 | 1.56 | -0.0422 | 0.148 | 0.264 |
| GAGGCAT | -0.0104 | 0.1 | 0.814 | 2.11 | -0.123 | 2.19 | 0.141 | -0.00157 | 0.156 |
| AAGGGAA | 0.056 | 0.0781 | 0.36 | 1.17 | 0.0857 | 1.36 | 0.0998 | -0.127 | -0.0393 |
| GAGGGTA | 0.0396 | -0.0259 | 0.277 | 0.582 | -0.192 | 1.63 | -0.0479 | -0.0959 | -0.0517 |
| TATGAAT | -0.223 | -0.01 | -0.404 | -1.64 | 0.0357 | 0.207 | -0.329 | -0.151 | -0.166 |
| ATAGATA | -0.0306 | -0.019 | -0.0621 | -0.867 | -0.029 | 0.0641 | 0.0123 | -0.222 | -0.0721 |
| GCCGCAG | -0.0669 | 0.0103 | -0.214 | -0.263 | 0.0215 | -0.504 | 0.316 | 0.054 | -0.0811 |
| TAGGATG | 0.152 | -0.0808 | -0.144 | 0.0177 | -0.0574 | -0.121 | 0.00377 | 0.108 | 0.00312 |
| ACGGTGC | 0.0606 | -0.105 | -0.604 | -0.472 | -0.0123 | -0.952 | 0.18 | 0.105 | -0.162 |
| CGACATG | 0.0703 | 0.125 | 0.0584 | 0.682 | -0.0172 | 1.71 | -0.0211 | 0.0224 | 0.107 |
| AGCGCAA | -0.0122 | 0.216 | -0.0241 | 0.656 | -0.0195 | 1.2 | 0.0274 | -0.0389 | 0.0856 |
| ACTTAGC | -0.0727 | 0.00695 | -0.666 | -0.593 | 0.0478 | -1.33 | -0.0148 | -0.0572 | -0.0684 |
| CATACGC | -0.0963 | -0.00938 | -0.12 | -0.514 | -0.00732 | -0.936 | 0.109 | -0.0262 | -0.0579 |
| ATGAGCC | -0.0254 | -0.0516 | -0.0065 | 0.0109 | 0.00999 | -0.576 | -0.127 | 0.00749 | -0.046 |
